# Laboratory results as given in PubChem BioAssay AID686970 (National Center for Advancing Translational Sciences (NCATS), 2013).
# The campaign covered roughly 360,000 compounds. About 6,000 (1.7%) were called active. Not shown: some 8% with an inconclusive outcome. The call rests on the fitted dose curve; in most records, active means well fitted cell-killing curve with a large enough effect; inconclusive means small, poorly fitted or top-dose-only effect, or effect the other way; inactive means flat fitted curve, though single readings scatter. The list shows a part of the results, in another mix than the full data.
# Test: qHTS for induction of synthetic lethality in tumor cells producing 2HG: qHTS for the HT-1080-NT fibrosarcoma cell line; further: nearly all actives have a fitted effect of over 55% in size
# Conditions: HT-1080-NT fibrosarcoma viability, CellTiter-Glo ATP luminescence, 48 h; series mostly up to 46.1 µM; activity, negative = less viability: at the top concentration
# Text: Unbiased genomic sequencing for 22 glioma genomes found recurrent mutation of IDH1 on chromosome 2q33, a gene encoding the cytosolic isoform of IDH1 associated with the tricarboxylic acid cycle (TCA) that catalyzes the oxidative decarboxylation of isocitrate, yielding alpha-ketoglutarate and CO2 via NADP+ to NADPH conversion. Subsequent studies confirmed the recurrent IDH mutations in up to 70% of secondary gliomas and in 10% of AML cases. In addition, the somatic mutation of cancer-associated IDH1 is a point mutation resulting in various amino-acid substituents at Arginine132 (IDH1 R132), a key residue found in the enzyme's active site that when mutated, results in the loss-of-function in metabolizing isocitrate but confers a gain-of-function to produce the oncometabolite 2-hydroxyglutarate (2HG). This in effect defines IDH1 as an oncogene and provides an extraordinary opportunity to discover chemical probes against mutant IDH1 that may translate into much needed new therapies for glioma and AML patients.
# This assay aims to perform a synthetic lethal screen for chemical probes specific for 2HG-producing tumor cells using matched paired cell lines (1) HT-1080-NT fibrosarcoma cell line that overproduces 2HG and (2) HT-1080-IDH1KD cell line which has IDH1 expression knocked-down. Desirable compounds are toxic to the NT fibrosarcoma cells but not to the IDH1KD cell line. The data in this AID corresponds to the results of the qHTS against the HT-1080-NT fibrosarcoma cell line.
# [1] Dang L, Jin S, Su SM. IDH mutations in glioma and acute myeloid leukemia. Trends of Mol Med. 2010; 16(9): 387-97.
# [2] Dang L et al. Cancer-associated IDH1 mutations produce 2-hydroxyglutarate. Nature. 2010; 465(7300):966.
# NIH Molecular Libraries Probe Production Centers Network [MLPCN]
# NIH Chemical Genomics Center [NCGC]
# Assay Submitter (PI): Lenny Dang Ph.D., Agios Pharmaceuticals
# Suspensions of trypsinized HT-1080-NT cells were dispensed into white, tissue culture-treated, solid 1536-well plates at 5uL/well (750 cells/well final concentration) in RPMI medium supplemented with 5% FBS. Plates were incubated at 37 degrees C for 2 hours, after which 23 nL of compounds or DMSO were delivered to each well using a pin tool. Plates were then incubated at 37 degrees C for an additional 48 hours. CellTiter-Glo viability reagent (Promega) was dispensed into wells (2.5uL/well) and incubated at room temperature for 10 minutes. The plates were measured on a PerkinElmer ViewLux plate reader for luminescent signal (clear filter, 1 sec exp). DMSO-treated control wells and media-only (no cells) control wells were used to normalize %Activity of identified toxic compounds; DMSO-treated wells corresponded to 0%Activity (100% viability), while media-only controls were used to normalize 100%Activity (0% viability).
# Concentration-response curves were fitted to the signals arising from the resulting luminescence. The concentration-effect curves were then classified based on curve quality (r2), response magnitude and degree of measured activity, and compounds were subsequently categorized based on their curve class.
# Potency means the concentration at half of the fitted maximal effect.
SMILES,"activity, negative = less viability",Potency
CCc1nn(CCCN2CCN(c3cccc(Cl)c3)CC2)c(=O)n1CCOc1ccccc1,inactive: -17%,
Nc1ncnc2nc[nH]c12,inactive: 26.2%,
OCC[C@@H]1C[C@@H](O)[C@H](O)[C@@]2(OCCc3ccccc32)O1,inactive: 6.83%,
O=c1cc(-c2ccc(O)cc2)oc2cc(O)c(C3OC(CO)C(O)C(O)C3O)c(O)c12 (stereo unspecified),inactive: -13.8%,
C=CC[C@@H](CC(=O)N[C@H](CO)Cc1ccccc1)C(=O)N[C@@H](COC(=O)[C@@H](CC=C)Cc1ccc(F)cc1)Cc1c[nH]c2ccccc12,inactive: 1.8%,
CC(C)Cc1ccc(C(C)C(N)=NCCc2ccccc2)cc1 (stereo unspecified),,active: 16.4 µM
C[C@H](O)[C@@H]1C(=O)N2CCc3c([nH]c4ccccc34)[C@@H]2C[C@@H]1N(C)C(=O)Nc1cc(Cl)cc(Cl)c1,,active: 16.4 µM
C=CC[C@@H](Cc1ccc(F)cc1)C(=O)OC[C@H]1CCCN1C(=O)[C@H](CC=C)CC(=O)N(CCO)Cc1ccccc1,inactive: -9.97%,
C[C@H](c1ccccc1)N1C[C@H](COCc2ccccc2)Oc2cc(N3CCC[C@H]3C(N)=O)ccc2S1(=O)=O,inactive: -25.7%,
O=C(c1cc(Cl)cc(Cl)c1)N1CCC(=O)N(C(COCc2ccccc2)Cc2ccccc2)CC1 (stereo unspecified),inactive: -12.3%,
Cc1cccc(NC(=O)c2ccc([N+](=O)[O-])o2)c1C,,active: 23.1 µM
CCc1nc2ccc(C(=O)Nc3cc(-c4ccccc4)ccc3OC)cn2c1N(CC)CCN(C)C,,active: 18.4 µM
CCCCOc1cc(C(=O)OCCN(CC)CC)ccc1N,inactive: 0.461%,
C#CCNC(=O)C1=C[C@H](c2ccccc2)[C@@H](CCCO)[C@H](OCC)O1,inactive: 1.28%,
O=C(CCc1ccccc1)N[C@@H]1c2ccccc2CC[C@@H]1OCc1ccccc1,inactive: -0.769%,
Cc1nc(NC(=O)/C=C/c2ccccc2)n[nH]1,,active: 9.2 µM
CC(=O)NC1C(O)OC(CO)C(O)C1O (stereo unspecified),inactive: -14.6%,
Cc1cccc(C2=N/C(=C/c3cccs3)C(=O)O2)c1,inactive: 19.2%,
C[C@]12C(=O)N(c3ccc(Cl)cc3)C(=O)N1[C@@H]1c3ccccc3OC[C@@H]1[C@H]2c1ccccc1,inactive: 0.169%,
CC(C)(C)OC(=O)C[C@H]1C/C=C\C[C@@H](CC(=O)NCCO)C(=O)NC[C@H](c2ccccc2)OC1=O,inactive: 6.69%,
O=C(Oc1c(Cl)cc(Cl)c2cccnc12)c1cccs1,,active: 20.6 µM
CCOC(=O)N1C(=O)[C@](c2ccc(Cl)cc2)(C(C)C)N1C(=O)OCC,inactive: -20.5%,
Oc1cc2c(cc1O)C1c3ccc(O)c(O)c3OCC1(O)C2 (stereo unspecified),inactive: -24.4%,

SMILES,"activity, negative = less viability",Potency
CN(C)CCC(c1ccc(Br)cc1)c1ccccn1 (stereo unspecified),,inactive
COc1cc(/C=N/NC(=O)c2ccncc2)ccc1O,inactive: 2.3%,
OCCN1CCN(CC(O)COc2ccc3ccccc3c2)CC1 (stereo unspecified),inactive: -14.1%,
Oc1cc2c(cc1O)C(c1ccccc1)CNCC2 (stereo unspecified),inactive: -29.8%,
C=CCOC(=O)C1=C[C@H](c2ccccc2)[C@@H](CCCO)[C@H](OCC)O1,inactive: 4.35%,
O=C1NC[C@H](CCCCN2C[C@H](Cc3ccccc3)N(CCC3CCCCC3)C(=O)C2=O)N(CCc2ccccc2)C1=O,inactive: 18.4%,
Cc1ccc(CN2CCN(/N=C/C(Br)=C\c3ccccc3)CC2)cc1,inactive: -2.25%,
CCOC(=O)[C@@H]1[C@H]2COc3cc(OC)ccc3[C@@H]2N2C(=O)N(c3ccc(C)cc3)C(=O)[C@@]12C,inactive: 14.7%,
C=CC[C@H](CC(=O)N[C@H](CO)Cc1ccccc1)C(=O)N[C@H](COC(=O)[C@H](CC=C)CC(=O)OC(C)(C)C)Cc1c[nH]c2ccccc12,inactive: -6%,
CN(C)CC[C@@H](c1ccc(Br)cc1)c1ccccn1,inactive: -6.31%,
COC(C[C@@H](O)C[C@@H](O)[C@@H](C)OCc1ccccc1)OC,inactive: -3.15%,
CCCCCCN1C[C@@H](O)[C@H](n2cc(-c3ccc(F)cc3)nn2)C[C@@H]1c1ccccc1,inactive: -3.7%,
CC(C)c1ccc2[nH]c3c(c2c1)CCCC3=O,,active: 20.6 µM
Cc1ccc(/C(C#N)=C\c2ccc(N3CCOCC3)o2)cc1,,active: 4.47 µM
COC(C[C@@H](O)C[C@H](O)[C@H](C)OCc1ccccc1)OC,inactive: 15.2%,
O=C(NCCCn1ccnc1)/C(=C\c1ccco1)NC(=O)c1ccco1,inactive: -2.62%,
C[C@H](CO)N1C[C@H](C)[C@H](CN(C)C(=O)OCc2ccccc2)OCc2cnnn2CCCC1=O,inactive: 9.46%,
COc1ccc(N2C(=O)C(Cl)=C(Oc3cccc(OC)c3)C2=O)cc1,,active: 18.4 µM
C[C@@H]1O[C@@H](O[C@H]2[C@H](Oc3cc(O)c4c(c3)O[C@H](c3ccc(O)cc3)CC4=O)O[C@H](CO)[C@@H](O)[C@@H]2O)[C@H](O)[C@H](O)[C@H]1O,inactive: 25.4%,
C=CCC[C@@H](Cc1ccc(F)cc1)C(=O)OC[C@@H](Cc1c[nH]c2ccccc12)NC(=O)[C@@H](CC=C)CC(=O)N[C@H](CO)Cc1ccccc1,inactive: -20.3%,
Cc1ccc(C(=O)N/C(=C\c2ccc(-c3cccc([N+](=O)[O-])c3)o2)C(=O)NCCCN2CCOCC2)cc1,,active: 18.4 µM
CCOC(=O)[C@@H]1[C@H]2COc3cc(OC)ccc3[C@H]2N2C(=O)N(c3cccc(C)c3)C(=O)[C@]12C,inactive: -0.28%,
CCOC(=O)[C@@H]1[C@H]2COc3cc(OC)ccc3[C@H]2N2C(=O)N(c3ccc(C(F)(F)F)cc3)C(=O)[C@@]12C,inactive: 0.441%,

SMILES,"activity, negative = less viability",Potency
COc1ccc(/C=N/OC(=O)Nc2ccccc2OC)cc1,,active: 9.2 µM
Cc1ccc(C(O)(C(=O)NNc2ccc3ccccc3n2)c2ccc(C)cc2)cc1,inactive: -25.2%,
O=C(NCCNC1CCC(c2ccccc2)CC1)c1ccc(F)cc1 (stereo unspecified),,active: 20.6 µM
CCCCOc1ccc(CC(=O)NO)cc1,inactive: -19.5%,
CCN1CCN(c2nc(-c3ccccc3)c3ccccc3n2)CC1,,active: 13 µM
O=C(Nc1ccc(N2CCOCC2)cc1)c1ccc([N+](=O)[O-])o1,,active: 7.31 µM
CC(C)(C)[C@@H]1COC(=O)[C@H](Cc2ccc(F)cc2)CC/C=C\C[C@@H](CC(=O)N(CCO)Cc2ccccc2)C(=O)N1,inactive: -8.1%,
C/C=C/Cn1c(SCCCc2ccccc2)nc2c1c(=O)[nH]c(=O)n2C,inactive: -10.8%,
Oc1ccc(C[C@@H]2CNCCN2CCCCC2CCCCC2)cc1,inactive: -21.6%,
OCC[C@H]1C[C@H](O)[C@@H](O)[C@@]2(CCCc3ccccc3O2)O1,inactive: 16.8%,
CCCCCCN1C[C@@H](n2cc(C3CC3)nn2)[C@H](O)C[C@@H]1c1ccc(C)cc1,inactive: -27.6%,
OCC[C@@H]1C[C@H](O)[C@@H](O)[C@]2(Cc3ccccc3O2)O1,inactive: 9.35%,
C=CC1=C(C(=O)O)N2C(=O)[C@@H](NC(=O)/C(=N\OCC(=O)O)c3csc(N)n3)[C@H]2SC1,inactive: 6.56%,
C=CCc1ccccc1OCC(O)CN1CCN(c2ccccc2OC)CC1 (stereo unspecified),inactive: -27.4%,
CC(=O)OCC(=O)C1(O)CCC2C3CCC4=CC(=O)C=CC4(C)C3C(=O)CC21C (stereo unspecified),inactive: 1.94%,
CCOC(=O)[C@@H]1[C@H]2COc3cc(OC)ccc3[C@@H]2N2C(=O)N(c3cccc(C)c3)C(=O)[C@@]12C,inactive: 3.53%,
Oc1c(C=C2N=c3ccccc3=N2)sc(=S)n1-c1ccc(F)cc1,inactive: 15.3%,
Cc1cc(C)nc(NC(N)=NCCc2ccccc2)n1,,active: 10.3 µM
COc1ccc([C@@]2(C(C)C)ON(c3ccccc3C(F)(F)F)C2=O)cc1,inactive: -14.2%,
O[C@@H]1C[C@H](c2ccc(Cl)cc2)N(Cc2cccs2)C[C@H]1n1cc(C2CC2)nn1,inactive: 9.03%,
Cc1ccc(N/N=C(\Cc2nc3ccccc3[nH]2)c2ccccc2)cc1,,active: 1.3 µM
CC1=CC(C)(C)Nc2ccccc21,inactive: -16.8%,
COc1ccc(C2CC(=O)c3c(O)cc(O)cc3O2)cc1O (stereo unspecified),inactive: 0%,

SMILES,"activity, negative = less viability",Potency
O=C(Nc1ccccc1)/C(=C/c1ccccc1)NC(=O)c1ccco1,inactive: -22.2%,
Nc1ncnc2c1ncn2C1O[C@H](CO)[C@@H](O)[C@@H]1O (stereo partly specified),inactive: -1.8%,
O=C(O)CC/C(=C\c1cccc(NC(=O)c2ccccc2Cl)c1)c1nc2ccccc2s1,inactive: -5.49%,
CC1=NN(c2nc3ccccc3[nH]2)C(=O)/C1=C/N(C)C,,active: 20.6 µM
OCC[C@H]1C[C@@H](O)[C@H](O)[C@]2(CCCc3ccccc3O2)O1,inactive: 14.7%,
N#C/C(=C/c1cccs1)c1nc2ccccc2[nH]1,inactive: -21.9%,
O=C(Nc1ccc(F)cc1)c1nn(-c2ccccc2)c(=O)cc1Cl,,active: 18.4 µM
CC(=C/c1ccco1)/C=N/N1CCN(c2ccccc2)CC1,inactive: 1.55%,
CCN(CC)CCn1nc2c3c(cccc3c1=O)-c1ccccc1-2,,active: 14.6 µM
O=C1C(Cc2ccccc2)Nc2ncnc(N3CCCCC3)c2N1Cc1ccc(Br)cc1 (stereo unspecified),inactive: -12%,
O=C(Nc1nc2ccccc2s1)c1cnccn1,,active: 2.82 µM
CC(=O)C[C@H](O)CC(=O)[C@H]1OC(=O)CCCCCCc2ccccc21,inactive: 5.02%,
CCOC(=O)[C@@H]1[C@H]2COc3ccccc3[C@@H]2N2C(=O)N(c3ccc(Cl)cc3)C(=O)[C@]12C,inactive: -14.7%,
COc1ccccc1N1CCN(CC(O)COc2cccc3ccccc23)CC1 (stereo unspecified),inactive: -23.1%,
O=C1NC[C@H](CCCCN2C[C@H](Cc3ccc(O)cc3)N(CCC3CCCCC3)C(=O)C2=O)N(CC2CCCCC2)C1=O,inactive: 17.1%,
O=C(C1=C[C@H](c2ccc(Br)cc2)C[C@H](OCc2ccc(CO)cc2)O1)N1CCOCC1,inactive: 17.7%,
CC12C=CC(=O)C=C1CCC1C2C(=O)C[C@@]2(C)C1CCC2(O)C(=O)CO (stereo partly specified),inactive: -7.99%,
COc1cc(/C=C2\S/C(=N/S(=O)(=O)Cc3ccccc3)NC2=O)c([N+](=O)[O-])cc1OC,inactive: -9.13%,
CCN1CCc2nc(N)oc2CC1,inactive: 24.7%,
NC(N)=N/N=C/c1ccc(OCc2ccc(Cl)cc2)cc1,,active: 15.8 µM
Oc1c(C=C2N=c3ccccc3=N2)sc(=S)n1C1CCCCC1,inactive: 27%,
CCCCn1c(SCC(N)=O)nc2c(sc3ccccc32)c1=O,,active: 22.4 µM
